Results from PubChem BioAssay AID488969 (Vanderbilt High Throughput Screening Facility, 2010).
Whole data set: some 110,000 compounds, median “z-score” near -0.1, cut for the highest 2% near 2. The list shows a part of the results. Calls of active or inactive are those of the source.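 How the source made its calls: active means z-score in the third read window above 3 or below -3; inactive means the rest.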

Target: Metabotropic glutamate receptor 8 (Rattus norvegicus) (UniProt P70579)
Assay: rat mGluR8 modulators via GIRK flux, primary screen, cell-based, thallium flux, HTS (AID 488969)
Settings: HEK293 rat mGluR8, GIRK (G protein-gated inwardly rectifying potassium channel) thallium flux, FluoZin2; at 10 µM; stronger effect = higher value; submaximal glutamate (EC20) added with thallium

UniProt P70579, sequence (P70579 whole entry, looked up): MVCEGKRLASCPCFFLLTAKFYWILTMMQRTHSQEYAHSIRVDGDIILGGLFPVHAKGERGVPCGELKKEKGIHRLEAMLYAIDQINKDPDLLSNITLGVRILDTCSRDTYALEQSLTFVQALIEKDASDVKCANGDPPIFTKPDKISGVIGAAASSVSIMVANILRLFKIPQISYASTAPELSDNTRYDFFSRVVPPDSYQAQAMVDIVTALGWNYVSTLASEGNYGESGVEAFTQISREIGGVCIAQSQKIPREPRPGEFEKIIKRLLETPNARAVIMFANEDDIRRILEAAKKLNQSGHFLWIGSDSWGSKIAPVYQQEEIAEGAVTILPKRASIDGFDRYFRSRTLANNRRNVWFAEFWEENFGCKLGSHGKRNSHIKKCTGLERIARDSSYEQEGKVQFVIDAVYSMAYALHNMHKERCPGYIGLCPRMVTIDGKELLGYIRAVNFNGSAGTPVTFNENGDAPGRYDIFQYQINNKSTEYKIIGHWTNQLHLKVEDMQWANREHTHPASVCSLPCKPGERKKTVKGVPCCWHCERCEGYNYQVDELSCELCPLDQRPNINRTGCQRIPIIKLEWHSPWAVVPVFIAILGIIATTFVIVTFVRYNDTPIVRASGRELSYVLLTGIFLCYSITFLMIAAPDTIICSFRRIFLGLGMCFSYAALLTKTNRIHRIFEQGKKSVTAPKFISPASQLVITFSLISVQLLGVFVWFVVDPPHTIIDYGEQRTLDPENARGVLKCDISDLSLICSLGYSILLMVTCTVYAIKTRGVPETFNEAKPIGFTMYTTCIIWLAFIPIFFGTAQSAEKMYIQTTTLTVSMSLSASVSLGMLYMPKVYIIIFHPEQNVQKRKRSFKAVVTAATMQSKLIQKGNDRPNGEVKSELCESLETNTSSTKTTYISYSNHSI

| SMILES | z-score |
| --- | --- |
| O=C(NC(=S)Nc1ccccc1N1CCOCC1)c1ccc([N+](=O)[O-])cc1 | 0.377 |
| CC(=O)c1cc(C)ccc1OC(=O)c1cccnc1 | 0.552 |
| Cc1cccc(OCCn2cc(/C=N/NC(=O)c3ccncc3)c3ccccc32)c1 | -1.37 |
| CN(C)CCSc1nc(-c2ccccc2)nc2c1COC(C)(C)C2 | -0.143 |
| Cc1c(NC(=O)c2noc(C(C)C)c2[N+](=O)[O-])c(=O)n(-c2ccccc2)n1C | 0.0552 |
| CCN1C(=O)c2c(C)nc3ccccc3c2C1=O | -0.152 |
| O=C(Nc1ncccn1)C1c2ccccc2Oc2ccccc21 | -1.61 |
| C=CCC(CC=C)(NC(=O)c1cccc(C)c1)c1ccccc1 | -0.499 |
| CCCCNC(=S)N(C)/N=C/c1ccc(OCc2ccc(C(=O)OC)cc2)c(OC)c1 | 0.00638 |
| O=[N+]([O-])c1ccc(Nc2ccc3ccccc3c2)nc1 | 0.0504 |
| Cc1c(N2C(=O)/C(=C3/C(=O)N(C)c4ccccc43)SC2=S)c(=O)n(-c2ccccc2)n1C | -0.363 |
| CN1CCC(N2CCN(c3cccc(C(F)(F)F)c3)CC2)CC1 | 0.0253 |
| CC(C)(C)NC(=O)C(=O)NCc1ccncc1 | -0.067 |
| COc1cccc(/C=C(/C(=O)OCC(=O)NC2CCCCCCC2)c2ccccc2)c1 | -0.323 |
| Cc1cc(C)c(NC2=NS(=O)(=O)c3ccccc32)c(C)c1 | -0.485 |
| CCCC1CCC(C(=O)Nn2c(C)nc3ccccc3c2=O)CC1 (stereo not drawn) | -0.234 |
| Cc1ccccc1NC(=O)/C=C/c1ccc([N+](=O)[O-])s1 | 0.376 |
| CC(C)(C)NC(=O)CSc1nnc(-c2ccncc2)n1Cc1ccccc1 | -0.16 |
| Cc1cc2c(OCC(O)CNC(C)(C)C)cccc2[nH]1 (stereo not drawn) | 0.417 |
| CCOC(=O)N1CCN(C(=O)c2ccccc2NC(=O)c2ccc(OC)cc2)CC1 | 0.851 |
| COc1ccc(/C=N/n2c(-c3n[nH]c4c3CCC4)n[nH]c2=S)cc1OC | -0.569 |
| O=C(OCn1nnc2ccccc2c1=O)c1cc(-c2ccccc2Cl)nc2ccccc12 | 0.0512 |

| SMILES | z-score |
| --- | --- |
| N#CC(C(=O)C12CC3CC(CC(C3)C1)C2)c1nc2ccccc2[nH]1 (stereo not drawn) | -0.609 |
| Cc1ccc(CNC(=O)Cc2ccc(-c3ccccc3)cc2)cc1 | 0.703 |
| O=C(COC(=O)Cc1ccccc1F)Nc1cc(S(=O)(=O)N2CCOCC2)ccc1N1CCCC1 | -0.136 |
| CC(C)N(Cc1nc(-c2ccccc2)no1)C(=O)CN1C(=O)c2ccccc2C1=O | -0.186 |
| CCn1nnnc1SCC(=O)Nc1sc(C)c(C)c1C#N | -0.175 |
| Nc1cc(Cl)ccc1Oc1ccc2ccccc2c1 | -0.263 |
| COC(=O)Cc1cnc(NC(=O)C2C3CCC(C3)C2C(=O)O)s1 (stereo not drawn) | -0.1 |
| Cc1ccccc1NC(=O)C1(NC(=O)c2cccc(N3C(=O)CSC3c3ccccc3)c2)CCCCC1 (stereo not drawn) | -0.0547 |
| O=C(NCCCN=C1NS(=O)(=O)c2ccccc21)c1ccncc1 | 0.0475 |
| Cc1cccc(N2CCN(C(=O)Cn3c(=O)[nH]c4ccsc4c3=O)CC2C)c1 (stereo not drawn) | 1.5 |
| Fc1ccccc1OCCSc1nnnn1-c1ccccc1 | -0.0995 |
| CCOc1nc(SC(C(C)=O)C(=O)Nc2ccccc2)nc(N(C)C)n1 (stereo not drawn) | -0.49 |
| CCOC(=O)Cc1csc(NC(=S)NC(=O)c2ccccc2Br)n1 | active: 7.57 |
| CN(C1CCCCC1)S(=O)(=O)c1ccc2c(c1)c(=O)c(C(=O)N1CCc3ccccc3C1)cn2C | -1.33 |
| Cc1cc(C(=O)Cn2nnc3ccccc3c2=O)c(C)n1-c1c(C)n(C)n(-c2ccccc2)c1=O | -0.0483 |
| O=C(CNC(=O)c1ccco1)NCC(=O)OC(C(=O)c1ccccc1)c1ccc(Cl)cc1 (stereo not drawn) | -0.478 |
| O=C(CSc1nc(Cc2ccccc2)nc2ccccc12)c1ccc2c(c1)OCCO2 | 0.362 |
| CC(=O)N/C(=C/c1ccccc1)C(=O)N1CCCCC1 | -0.553 |
| Cc1ccc(NC(=O)CSc2nnc(-c3cccnc3)s2)cc1 | 0.0647 |
| Cc1cc(C(=O)NCC2CCCO2)n(-c2ccccc2)n1 (stereo not drawn) | -0.204 |
| COc1cc(C)nc(NC(=O)COc2ccc(Cl)cc2C)n1 | 0.561 |
| O=C(CSc1nc2ccccc2n1CCc1ccccc1)NC1CCS(=O)(=O)C1 (stereo not drawn) | 2.39 |

| SMILES | z-score |
| --- | --- |
| CCOC(=O)c1cc(-c2ccccc2)sc1NC(=O)CSc1nncs1 | 0.159 |
| CC1CCN(S(=O)(=O)c2cn(C)c(=O)n(C)c2=O)CC1 | 0.249 |
| COc1ccc(O)c(C(=O)c2cnc3nc4ccccc4n3c2)c1 | 0.523 |
| CC(=O)N1CCc2cc(S(=O)(=O)NCCC3=CCCCC3)ccc21 | -0.284 |
| CCCC(=O)C1=C(O)C(C(=O)OC)C(C)(C)CC1=NC(C)C (stereo not drawn) | 0.0232 |
| CCOC(=O)C1CCN(C(=O)C2CCN(S(=O)(=O)c3c(C)noc3C)CC2)CC1 | -0.0645 |
| O=C1C2C3C=CC(c4ccccc4)(C2C(=O)N1c1cccc(Cl)c1)C1C(=O)N(c2cccc(Cl)c2)C(=O)C31 (stereo not drawn) | 0.0233 |
| CCC(=O)Nc1cccc(NC(=S)NC(=O)c2ccc(Cl)cc2Cl)c1 | 0.0528 |
| COc1ccc(/C=N/NC(=O)c2csc(-n3nc(C)cc3C(F)(F)F)n2)cc1 | -0.25 |
| c1ccc(C(c2ccccc2)N2CCN(c3nc4ccccc4n4cnnc34)CC2)cc1 | -0.222 |
| O=c1oc2ccccc2c2c1SC(C(F)(F)F)C2 (stereo not drawn) | -0.38 |
| FC(F)(F)c1cc(-c2ccc(Cl)cc2)nc2ncnn12 | -0.345 |
| CCN(Cc1nc2cc(OC)c(OC)cc2c(=O)[nH]1)C(=O)c1ccc(S(=O)(=O)N(C)C)cc1 | 0.224 |
| CC(C)N=c1scc(-c2cccs2)n1/N=C/c1ccc(O)c(O)c1O | active: 4.07 |
| CCC(C)(C)NCC(=O)Nc1ccc(OC(F)(F)F)cc1 | 0.686 |
| COCCCNC(=O)/C(=C\c1cccn1C)NC(=O)c1cccs1 | 0.0671 |
| CS(=O)(=O)c1ccccc1-c1nc(-c2ccc(C(F)(F)F)cc2)no1 | 0.192 |
| Cc1ccc(C)n1NC(=O)c1cccc(Cl)c1 | -0.0187 |
| CCc1cccc(CC)c1NC(=O)CN1CC(C)SC1=NC1CCCCC1 (stereo not drawn) | 0.24 |
| O=C(CSc1nnc2ccccn12)c1ccccc1 | 0.709 |
| CN(C)C(=O)c1ccc(NC(=O)c2ccccc2Sc2ccccc2C#N)cc1 | -0.228 |
| COc1ccc(NC(C)=O)cc1NC(C)C(=O)Nc1cc(C(F)(F)F)ccc1N1CCOCC1 (stereo not drawn) | -0.963 |

| SMILES | z-score |
| --- | --- |
| Cc1ccc(C(=O)Nc2nnc(-c3ccc(C(C)(C)C)cc3)s2)cc1 | -1.03 |
| CCOC(=O)C1CCN(C(=O)COc2ccc(S(=O)(=O)NC(C)C)cc2Cl)CC1 | -0.688 |
| O=C(Nc1ccc2c(c1)OCO2)C1CCCCN1S(=O)(=O)c1ccccc1 (stereo not drawn) | 0.395 |
| CCc1noc(C)c1C(=O)Nc1ncc(C)s1 | -0.483 |
| Cc1nc(NC(=O)c2ccc(-c3cc4ccccc4oc3=O)cc2)ccc1Br | -0.171 |
| COc1cccc(CN2C(=O)c3cccc(N)c3C2=O)c1 | -0.546 |
| NS(=O)(=O)c1cccnc1Nc1cccc(C(F)(F)F)c1 | -0.118 |
| O=c1c2cccnc2[nH]c(=S)n1CCCN1CCN(c2ccc(F)cc2)CC1 | 0.723 |
| COC(=O)NNC(=O)C12CC3CC(CC(C3)C1)C2 | -0.252 |
| O=C(NCc1cc(C(F)(F)F)cc(C(F)(F)F)c1)C1CC(c2cccc([N+](=O)[O-])c2)=NO1 (stereo not drawn) | 0.044 |
| N#Cc1nc(Cc2ccccc2)oc1N1CCN(c2ccccc2)CC1 | 0.123 |
| COc1ccc(C(C)=O)cc1COC(=O)Cc1n[nH]c(=O)c2ccccc12 | -0.504 |
| CCOC(=O)CSc1nnc(Cc2ccccc2)n1Cc1ccco1 | 0.297 |
| Cc1cc(C)cc(OCC(=O)OCC(=O)Nc2ccc(Cl)cn2)c1 | 0.582 |
| COc1cccc(OCC(O)CN2CCN(CCO)CC2)c1 (stereo not drawn) | 0.428 |
| Cc1ccc2nsnc2c1S(=O)(=O)NCc1cccnc1 | -0.00044 |
| CC(=O)C1=C(O)C(=O)N(c2ccc(C(=O)O)cc2)C1c1ccccc1 (stereo not drawn) | -0.312 |
| Cc1sc(-c2ccccn2)nc1OC(=O)c1ccc(Cl)c(Cl)c1 | 0.0343 |
| C=CCn1c(Cc2cccs2)nnc1SC/C=C/c1ccccc1 | -1.31 |
| Cc1cccc(OCCC(=O)Nc2ccc(C)c(S(=O)(=O)N3CCCCC3)c2)c1 | -0.857 |
| Cc1cc(Cl)c(S(=O)(=O)Nc2ccon2)cc1OCC(=O)NC1CCCCC1 | -0.226 |
| Cc1[nH]nc2c1C(Cc1ccccc1)C(C#N)=C(N)O2 (stereo not drawn) | -0.192 |

| SMILES | z-score |
| --- | --- |
| Cc1ccc(S(=O)(=O)N2CCCC2C(=O)N2CCCCCC2)cc1 (stereo not drawn) | 0.624 |
| COC(=O)c1cc2sccc2n1CC(=O)Nc1cc(OC)cc(OC)c1 | -0.244 |
| CCOC(=O)C1CCN(C(=O)Nc2ccc3nc(C)c(C)nc3c2)CC1 | -0.346 |
| O=C(CSc1nncs1)Nc1ccc(Cl)cn1 | 0.879 |
| CC(=O)Oc1ccc(C(=O)Nc2ccccc2C(=O)NCC(C)C)cc1 | -0.069 |
| CCCn1nc2cc(C(=O)NCc3ccc(OC)cc3)ccc2c1OCC | -0.298 |
| CN(C)S(=O)(=O)N1CCCN(S(=O)(=O)N(C)C)CC1 | -0.47 |
| COc1ccc(C2c3c(ncn(Cc4ccco4)c3=N)Oc3ccc4ccccc4c32)cc1 (stereo not drawn) | -0.169 |
| CC(Sc1nc2cc(Cl)ccc2s1)C(=O)Nc1cccc(S(=O)(=O)N2CCOCC2)c1 (stereo not drawn) | -1.56 |
| CCOc1ccc2[nH]c(=O)c(CN(Cc3ccccc3OC)C(=O)c3ccccc3)cc2c1 | -0.571 |
| O=C(CSC1=NC(=O)C(c2ccccc2)C(=O)N1)Nc1cccc(Cl)c1 (stereo not drawn) | -0.477 |
| Cc1ccc(C(c2nnnn2C(C)(C)C)N2CCC(C)CC2)cc1 (stereo not drawn) | -0.301 |
| COc1cc(Cl)cc(C#N)c1OCC(=O)O | 0.0117 |
| Cc1nc2nc3c(cn2n1)C(=O)CCC3 | 0.0584 |
| Cc1cccc(NC(=O)CCCSc2nc3ccccc3[nH]2)c1 | -0.764 |
| CCOC(=O)c1[nH]cnc1C(=O)Nc1ccncc1 | 0.161 |
| COc1ccc(N2C(=O)c3ccc(C(=O)OC(C)C)cc3C2=O)cc1 | -0.374 |
| CCN(CC)c1ccc(/C=N/OCC(=O)Nc2cccc(C)c2)cc1 | 0.0156 |
| O=C(C1CCC(CNS(=O)(=O)c2cccc3cccnc23)CC1)N1CCc2ccccc21 (stereo not drawn) | -0.0229 |
| O=C1C2C3C=CC(CC3)C2C(=O)N1/N=C/c1ccc(O)c(O)c1 (stereo not drawn) | -0.0912 |
